Data: PMC4336329 (PLoS ONE, 2015)
Among all 310,000 compounds or so, about 14,000 (4.5%) showed an effect of 50% or more. The effect is printed as a negative number. Some of the results follow.

molecular target: human ether-à-go-go-related gene (hERG) potassium channel (human, UniProt Q12809); assay: primary screen, population patch clamp on CHO cells stably expressing hERG
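Note: peak tail current of the secondary pulse compared with the same well before compound.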

Sequence of human ether-à-go-go-related gene (hERG) potassium channel (Q12809 whole entry, looked up): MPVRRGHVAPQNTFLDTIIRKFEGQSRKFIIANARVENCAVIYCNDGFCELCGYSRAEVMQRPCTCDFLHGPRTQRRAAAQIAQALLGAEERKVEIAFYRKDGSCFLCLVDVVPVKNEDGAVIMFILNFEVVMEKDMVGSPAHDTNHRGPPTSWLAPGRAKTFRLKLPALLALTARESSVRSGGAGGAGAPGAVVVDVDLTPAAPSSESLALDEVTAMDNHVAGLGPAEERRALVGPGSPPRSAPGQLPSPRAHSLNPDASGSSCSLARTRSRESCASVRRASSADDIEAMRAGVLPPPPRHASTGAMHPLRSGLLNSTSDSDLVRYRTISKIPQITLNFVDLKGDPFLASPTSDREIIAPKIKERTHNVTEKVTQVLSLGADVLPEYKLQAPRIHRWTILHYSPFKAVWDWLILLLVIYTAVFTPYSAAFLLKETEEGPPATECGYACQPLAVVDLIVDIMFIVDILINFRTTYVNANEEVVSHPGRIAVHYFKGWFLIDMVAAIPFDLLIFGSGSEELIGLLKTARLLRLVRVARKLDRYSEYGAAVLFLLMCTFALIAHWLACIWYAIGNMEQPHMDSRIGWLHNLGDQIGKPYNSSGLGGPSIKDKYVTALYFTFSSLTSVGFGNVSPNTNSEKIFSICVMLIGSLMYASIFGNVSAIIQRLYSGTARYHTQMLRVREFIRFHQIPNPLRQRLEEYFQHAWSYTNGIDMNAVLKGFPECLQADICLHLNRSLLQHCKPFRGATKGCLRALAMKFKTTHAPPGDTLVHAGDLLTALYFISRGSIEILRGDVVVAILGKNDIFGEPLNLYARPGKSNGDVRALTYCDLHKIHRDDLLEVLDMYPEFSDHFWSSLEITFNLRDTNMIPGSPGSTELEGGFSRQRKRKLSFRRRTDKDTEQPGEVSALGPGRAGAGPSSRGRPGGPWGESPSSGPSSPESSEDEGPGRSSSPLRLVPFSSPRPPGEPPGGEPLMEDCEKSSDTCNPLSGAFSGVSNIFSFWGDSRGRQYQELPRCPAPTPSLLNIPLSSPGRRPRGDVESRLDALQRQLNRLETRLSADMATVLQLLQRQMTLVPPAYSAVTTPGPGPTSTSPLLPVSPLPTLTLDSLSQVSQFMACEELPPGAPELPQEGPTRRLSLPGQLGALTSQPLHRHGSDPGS

| SMILES | hERG current change (%, negative = inhibition) at 10uM [%] |
| --- | --- |
| O=S(=O)(c1ccccc1)c1nc(Nc2cccc(O)c2)sc1Cl | -16.5 |
| S=C(NC1CCCCC1)NC1CC2C=CC1C2 (stereo not drawn) | 7.86 |
| O=C(NC1(C(F)(F)F)NC(=O)N(c2ccccc2)C1=O)c1cccs1 (stereo not drawn) | 5.73 |
| CCOC(=O)C1CCN(S(=O)(=O)c2ccc3c4c2CC(=O)N4CC(C)S3)CC1 (stereo not drawn) | -57.1 |
| COC(=O)c1ccc(OC(=O)CCN2C(=O)C3CCCCC3C2=O)cc1 (stereo not drawn) | -4.63 |
| O=C1NC(=O)N(Cc2ccccc2)C(=O)/C1=C/c1cnn(-c2ccccc2)c1 | 2.15 |
| Cc1ccccc1NS(=O)(=O)c1ccc2c(c1)NC(=O)CCS2 | -3.44 |
| CCC(C)(C)n1nnnc1CN(Cc1cc2cc(OC)ccc2[nH]c1=O)C1CCCC1 | -40.1 |
| COCCN(C(=O)CCC(=O)Nc1cccnc1)C(C(=O)NC1CCCCC1)c1ccccc1 (stereo not drawn) | 1.81 |
| COC(=O)N/N=C(\C)c1ccc2ccccc2c1OC(F)F | 11.9 |
| CCN(CC)S(=O)(=O)c1ccc(C(=O)NNC(=O)C2CCN(S(=O)(=O)c3ccc(Cl)cc3)CC2)cc1 | -1.1 |
| Cc1ccc(C(=O)Nc2ncccc2S(=O)(=O)c2ccccc2)cc1 | 6.57 |
| COc1ccc(-c2cc3nc(-c4ccccc4)cc(N4CCC5(CC4)OCCO5)n3n2)cc1 | 3.55 |
| c1csc(-c2nc(-c3ccc(-c4ccon4)s3)no2)c1 | 16.3 |
| CCOc1ccc2nc(NC(=O)CSc3ccc(Cl)cc3)sc2c1 | 15.2 |
| Cc1ccc(NC(=O)c2ccccc2F)c(NC(=O)c2ccccc2F)c1 | -20.1 |
| CC1(C(=O)Nc2cccc(C(F)(F)F)c2)CO1 (stereo not drawn) | 25.1 |
| O=[N+]([O-])c1cc(C(F)(F)F)ccc1NCCOc1ccccc1 | -3.64 |
| O=C(NCC1CCCO1)c1sc2ccccc2c1Cl (stereo not drawn) | -3.61 |
| O=C(NCc1ccc(Cl)cc1)c1ccccc1Oc1ccccc1 | -16.9 |
| Cc1ccc2nc(N3CCN(C(=O)CCCC(=O)O)CC3)nc(-c3ccccc3)c2c1 | 5.94 |
| COc1ccc(-c2nc(=S)c3c(n2Cc2cccnc2)CC(C)(C)OC3)cc1 | 2.43 |
| CC(=O)Nc1ccc(S(=O)(=O)N[C@@H](C)C(=O)N(C)Cc2cccs2)cc1 | 11.8 |
| CCc1cccc(NC(=S)Nc2cccc3ccccc23)c1 | 8.63 |
| O=C(CN1C(=O)/C(=C/c2ccccc2)SC1=S)Nc1ncc(Cc2ccccc2)s1 | 7.31 |
| CC(C)(Cc1cc(CC(C)(C)C(=O)O)cc(C(C)(C)C)c1)C(=O)O | 10.4 |
| Cc1cc(SCC(=O)N/N=C/c2ccc(O)c(O)c2O)c(C)cc1Br | 7.06 |

| SMILES | hERG current change (%, negative = inhibition) at 10uM [%] |
| --- | --- |
| O=C(COC(=O)CNC(=O)c1ccccc1F)Nc1nnc(-c2ccccc2)o1 | -12.7 |
| CC(C)c1onc(C(=O)N2CCN(c3ccc(F)cc3)CC2)c1[N+](=O)[O-] | -19.9 |
| Cc1ccc(S(=O)(=O)N(CC(=O)NCCC2=CCCCC2)Cc2ccccc2)cc1 | -27.9 |
| Nc1nnnn1/N=C/c1ccccc1O | 20.2 |
| COc1ccccc1NC(=O)c1ccccc1N(Cc1ccccc1)S(C)(=O)=O | 11.9 |
| CC(C)(C)SCCNC(=O)CN(c1ccc(F)cc1)S(=O)(=O)c1ccccc1 | 0.876 |
| CC(=O)Nc1ccc(S(=O)(=O)NCC2CCC(C(=O)N3CCN(c4ccccn4)CC3)CC2)cc1 (stereo not drawn) | 19.3 |
| Cc1cccc(N2C(=O)/C(=C/c3ccccn3)SC2=S)c1 | 13.1 |
| COc1ccc([C@@H](O)[C@@H](N)c2ccccc2)cc1.Cl | -0.673 |
| O=C1c2ccccc2C(=O)C12OC2c1ccc(Cl)cc1 (stereo not drawn) | 6.63 |
| CC1CCN(C(=O)Cn2c(=O)oc3cc(S(=O)(=O)N4CCCCC4)ccc32)CC1 | 10.8 |
| CN1/C(=C\C(=O)CSc2nnc(NCc3ccccc3)s2)C(C)(C)c2ccccc21 | -13.1 |
| COc1cccc(-c2nc(-c3ccc(NC(=O)c4ccncc4)cc3)no2)c1 | -0.767 |
| COCCN(C(=O)CNC(=O)c1ccco1)C(C(=O)NC1CCCC1)c1ccc(F)cc1 (stereo not drawn) | 11.9 |
| COc1cc(-c2cc(=O)c3c(O)c(OC)c(OC)cc3o2)cc(OC)c1O | 4.87 |
| CCCC(=O)Nc1nc2ccc(S(N)(=O)=O)cc2s1 | 4 |
| CCOc1ncccc1C(=O)Nc1cccc(S(=O)(=O)N2CCCCC2)c1 | -7.03 |
| CCOC(=O)c1sc2nc(CC(=O)OC)nc(N3CCN(c4ccc(OC)cc4)CC3)c2c1C | 7.34 |
| Cc1ccc(S(=O)(=O)N2CCCC2CNC(=O)C(=O)NCc2ccccn2)cc1 (stereo not drawn) | -14.1 |
| CCOC(=O)c1c(C)n(-c2ccc(F)cc2)c2ccc(O)cc12 | 16.4 |
| COc1cc(Nc2c3c(nc4ccccc24)CCC3)cc(OC)c1OC | -60 |
| Cc1ccc2c(c1)C1OCCC1C1N2C(=O)C2C(C(=O)O)C3C=CC21O3 (stereo not drawn) | 9.39 |
| COc1ccc(NC(=O)Cn2c(C)csc2=O)c(OC)c1 | 2.46 |
| CCN(CC)CCNC(=O)c1ccc2c(=O)n(CCc3ccccc3)c(=O)[nH]c2c1 | -30 |
| CCCCOc1ccc(C(C)NC(=O)CCS(=O)(=O)Cc2ccc(Cl)cc2)cc1 (stereo not drawn) | 10.2 |
| COc1ccccc1C1=NN(C(=O)c2ccccc2)C(c2ccc(Br)cc2)C1 (stereo not drawn) | 20.5 |
| Cc1ccc(Nc2nc(/N=C/NO)n[nH]2)cc1C | 13.5 |
